In article PMC8298518:
Results are given in words; binding and its absence hold for the method and conditions named. Binding seen in cells or lysates may run through a third protein. Some results given as binding are weak or reduced against the parent protein; the word gives no strength. Tags and fused reporters may be left off the sequences shown.

Protein sequences, listed by entry. Tags and fused reporters are not part of them.
UniProt Q07820: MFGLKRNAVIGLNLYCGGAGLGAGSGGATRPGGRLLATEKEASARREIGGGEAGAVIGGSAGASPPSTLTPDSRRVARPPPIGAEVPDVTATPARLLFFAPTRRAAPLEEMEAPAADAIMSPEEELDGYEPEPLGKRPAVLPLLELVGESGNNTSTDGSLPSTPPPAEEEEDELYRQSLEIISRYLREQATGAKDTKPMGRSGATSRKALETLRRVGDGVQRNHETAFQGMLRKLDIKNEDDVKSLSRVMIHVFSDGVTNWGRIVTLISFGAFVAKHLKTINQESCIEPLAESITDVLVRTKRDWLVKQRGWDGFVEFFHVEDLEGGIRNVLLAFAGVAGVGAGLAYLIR

Biological target: T1, HA-GBP2 (human) (UniProt P32456)
T1 sequence: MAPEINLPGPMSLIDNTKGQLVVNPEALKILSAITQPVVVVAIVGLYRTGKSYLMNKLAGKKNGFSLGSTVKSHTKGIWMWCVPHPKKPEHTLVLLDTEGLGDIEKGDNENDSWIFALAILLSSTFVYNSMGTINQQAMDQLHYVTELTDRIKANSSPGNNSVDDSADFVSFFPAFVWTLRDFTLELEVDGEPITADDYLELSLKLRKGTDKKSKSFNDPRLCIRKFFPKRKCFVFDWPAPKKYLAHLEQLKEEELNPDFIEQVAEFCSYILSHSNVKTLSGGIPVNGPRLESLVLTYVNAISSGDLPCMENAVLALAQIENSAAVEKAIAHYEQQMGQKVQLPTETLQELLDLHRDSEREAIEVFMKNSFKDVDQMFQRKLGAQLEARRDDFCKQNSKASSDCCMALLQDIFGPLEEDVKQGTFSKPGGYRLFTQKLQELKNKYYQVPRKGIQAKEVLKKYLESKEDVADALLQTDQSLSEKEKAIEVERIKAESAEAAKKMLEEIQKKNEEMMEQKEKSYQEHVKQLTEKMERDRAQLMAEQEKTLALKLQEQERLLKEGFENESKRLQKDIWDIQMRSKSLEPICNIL
Test: co-IP; 293T cells (2 x 10^6) cotransfected for 24 h; lysates immunoprecipitated with anti-HA

Flag-tagged MCL-1 WT (from UniProt Q07820 1-350)
binding: binds
